Reference: the RNAGym collection of RNA variant scans (doi:10.7554/elife.90254)
The source gives no read counts; variants with many changes may rest on few reads.

B1: LINE1-mini (parent)
chain: GGCAGAGCUCAACACAGCGUGGCAAAGUGGCUGUGGCUAGACUGCC

Variants of: B1
Assay: self-cleavage, relative activity (ratio to wild type); higher = more cleavage; in vitro, sequencing; the parent is a self-cleaving ribozyme

Row | Variant | self-cleavage
1 | C3A A4G G7A G27U U34G | 0.09
2 | C3A A11C G33U C37G | 0.09
3 | C3A C10G C31A U34C | 0.01
4 | C3A A6C A26G C37U G40U | 0.2
5 | C3A C18G A24U | 0.93
6 | C3A C13A U20C G22A G40U | 0.21
7 | C3A A4C C15A A24U G33A A39U G40U | 0.08
8 | C3A A14U U28G U32A G33U G40U | 0.19
9 | C3A A16U G35U A39U | 0.04
10 | C3A A14C U20C C23A | 0.03
11 | C3A A4U A12G G30U U38G | 0.1
12 | C3A C10G G29U G36C A41C | 0.02
13 | C3A C18A U20C G21U A39C | 0.08
14 | C3A C10G A14G A26G U32A | 0.02
15 | C3A C8U A14G U28A G30U | 0.01
16 | C3A C23G C42U | 0.12
17 | C3A A25C G35C | 0.07
18 | C3A A6U C23A G40A C42U | 0.19
19 | C3A C10G G17C G29U C31A | 0.02
20 | C3A C31U G36U | 0.33
21 | C3A C8A G35U A39G | 1.55
22 | C3A C10A A14C G21A G29U G30A C31U C45U | 0.02
23 | C3A C10A G22A U38A | 0.03
24 | C3A C23G G29U G35C | 0.27

Row | Variant | self-cleavage
25 | C3A A4C G27U U28A G33U C42A | 0.49
26 | C3A C15A G17U G21A G27A | 0.13
27 | C3A C8G U28C U34C | 0.2
28 | C3A A6U C8G C10A U38C | 0.01
29 | C3A A6G C8G A14G G17U G19A | 0.02
30 | C3A C8U C13G C37G A39C | 2.29
31 | C3A C8G C18U G19U | 1.84
32 | C3A A26G C31A G40U A41G C42U | 0.03
33 | C3A A24G A39G | 0.44
34 | C3A A24C U38G | 0.07
35 | C3A A14G G19U G22C | 0.04
36 | C3A C8A U9A C10A G35A A39U C45A | 0.01
37 | C3A A11C G29A | 0.04
38 | C3A A24G A25U G30U | 0.39
39 | C3A A26C C37U | 0.34
40 | C3A C23U C45G | 0.28
41 | C3A A16U G19C U34G | 0.17
42 | C3A C15U G17A C18U G30C G40C | 0.04
43 | C3A A12U G19C C46A | 0.07
44 | C3A A4G A6G G17A C45A | 0.1
45 | C3A C15U G29A | 2.26
46 | C3A A11G G21A U32G | 0.04
47 | C3A A24G U32A | 0.18
48 | C3A C15A G33A C37G | 0.16

Row | Variant | self-cleavage
49 | C3A C8U A16U A25G | 0.07
50 | C3A A4C G5C C8U G27A | 0.05
51 | C3A C18G C42A | 0.4
52 | C3A A11U G29C | 0
53 | C3A A11G A12G G22C | 0.02
54 | C3A C8U G29C U32C | 0.5
55 | C3A A11C C31A | 0.01
56 | C3A A14C G19U G35A | 0.15
57 | C3A C8U A16G G44U | 0.28
58 | C3A A6C C23U G44C | 0.75
59 | C3A A6G G44U | 0.11
60 | C3A C10G C15G G17C | 0.03
61 | C3A C18U A25U A39U C42G | 0.06
62 | C3A C8A C45G | 0.14
63 | C3A A4U G17A G19C | 0.08
64 | C3A C8A A12U G19A U20C | 0.22
65 | C3A C13G U32C U38A | 0.11
66 | C3A A14G G33U C37A C46U | 0.14
67 | C3A A26G U34A C42G | 0.1
68 | C3A A6G U43A | 0.11
69 | C3A C31G U34A | 0.05
70 | C3A A12G G17C C37A A39U | 0.24
71 | C3A A12C C15A C18A | 0.06
72 | C3A A11G U20A G21A C23U A25C C45U | 0.02

Row | Variant | self-cleavage
73 | C3A A16C A25U | 0.01
74 | C3A C31G U32A | 0.13
75 | C3A A12U G29C | 0.03
76 | C3A C8A A14U C18U U20A U28G C42G | 0.13
77 | C3A C13G G40A | 0.13
78 | C3A C31U A41U G44A | 0.03
79 | C3A A11G C46U | 0.01
80 | C3A A12U U38G G40U | 0.07
81 | C3A A4U A14U U20A A24C G29U C31U U38A | 0.03
82 | C3A A4U G30C A39G C45A | 0.12
83 | C3A C8A C42U C45U | 0.95
84 | C3A A11C C23G | 0.02
85 | C3A A6G C15U C37U A41U | 0.14
86 | C3A A16C A24G U32A C42A | 0.28
87 | C3A C15A A26C | 0.1
88 | C3A A6C U9A C42A | 0.24
89 | C3A C8U G27A | 0.31
90 | C3A A4U G5U A11C A41G | 0.01
91 | C3A A4U A6G G17U G33C C37G U38A C46G | 0.03
92 | C3A C31A U43G | 0.11
93 | C3A A6U C10U A14C G19U A41U | 0.05
94 | C3A C13A G33C A39G | 0.08
95 | C3A C8U A25U | 1.08
96 | C3A C8U A25C | 0.86

Row | Variant | self-cleavage
97 | C3A A14G C23A A41U | 0.14
98 | C3A A6G C15A A41G | 0.04
99 | C3A A12G U34C C42A | 0.89
100 | C3A A4G C18U G30U | 0.06
101 | C3A C31A G33U G40C | 0.05
102 | C3A A12C C31A A39U C42G | 0.01
103 | C3A C10A C23G | 0.04
104 | C3A C31G C42A G44U | 0.14
105 | C3A A4U C8G A11U | 0.01
106 | C3A A11C G21U | 0.05
107 | C3A C15A U28G U38A | 0.12
108 | C3A C8A C31U A39U C42A | 0.26
109 | C3A C10U C15G | 0.07
110 | C3A C10A A14G G19U G27C G36C U38A | 0.01
111 | C3A A6C G29A U43G | 0.02
112 | C3A C15A G29U U43C | 0.16
113 | C3A A4U A14U U43A C45A C46G | 0.05
114 | C3A C15A C37U A41C | 0.32
115 | C3A A6G A24G U32G | 0.09
116 | C3A A11G A14C | 0.02
117 | C3A A6C C18A G19U A25G | 0.09
118 | C3A C10G C18A G30C G36C U38G A41C | 0.01
119 | C3A C31U G36A U38A | 0.51
120 | C3A A24U G40A A41C | 0.14

Row | Variant | self-cleavage
121 | C3A C23A A24U | 0.15
122 | C3A C10A G21U | 0.12
123 | C3A A25G G27U | 0.19
124 | C3A C8U U20A G27A C46U | 0.38
125 | C3A A25C G36A C37U U43A | 0.12
126 | C3A C13G U32C | 0.47
127 | C3A C8G A26U | 0.05
128 | C3A C18G A25C C31G | 0.08
129 | C3A C8A A14G U32A U43C | 0.29
130 | C3A A16C C31U G33U G36A | 0.02
131 | C3A A12C G22U | 0.05
132 | C3A A25U A26U | 0.42
133 | C3A A16G G27U U34C | 0.07
134 | C3A A6C G19A A26U A39U C42A | 0.01
135 | C3A A25G G30U C37A | 0.16
136 | C3A A4U G5U U9C G21A | 0.04
137 | C3A C8U C13A A14U | 0.63
138 | C3A C8U G40A A41C | 0.06
139 | C3A A12C G19C C45G | 0.02
140 | C3A C13U A24G G40U | 0.57
141 | C3A A14G A39U | 0.06
142 | C3A C31A G36C A41G | 0.23
143 | C3A C8A U34C | 0.36
144 | C3A A12G A24G A41G U43G | 0.04

Row | Variant | self-cleavage
145 | C3A A11U G29U C45G C46U | 0
146 | C3A C8U G40C | 0.17
147 | C3A C8U G40U | 0.35
148 | C3A C10A A26U G27C | 0.06
149 | C3A A11C G30A | 0.07
150 | C3A A6G A14U A39U | 0
151 | C3A A6C U28A C46U | 0.19
152 | C3A C31G G40U C45U | 0.13
153 | C3A C31G U43G | 0.06
154 | C3A A12G C37G A39C | 0.67
155 | C3A A4G C45U | 1.18
156 | C3A A12C U32A | 0.06
157 | C3A A4U A14U G29U | 0.1
158 | C3A C23G G29C | 0.1
159 | C3A C13A A16U G21U | 0.52
160 | C3A C10G C15G G44C | 0.03
161 | C3A C8A A41G | 0.33
162 | C3A C13A G17C C18A A24U C31A C37U G40C | 0.23
163 | C3A C10U A14U A24G G27A | 0.08
164 | C3A C10A G17U G30U | 0.03
165 | C3A A4U C18G G29A | 0.14
166 | C3A C23U G33A C45U | 0.37
167 | C3A C31A G40C | 0.1
